Laboratory results taken from PubChem BioAssay AID686970 (National Center for Advancing Translational Sciences (NCATS), 2013).
Screen size: about 360,000 compounds; about 6,000 (1.7%) were called active. This list was built around the results that the source calls inconclusive (neither active nor inactive); the mix of calls is not that of the screen. Calls come from the whole dose curve; as a rule, active = well fitted cell-killing curve with a large enough effect; inconclusive = small, poorly fitted or top-dose-only effect, or effect the other way; inactive = flat fitted curve, though single readings scatter. No potency is given beside an inconclusive call; the fits are too rough.

experiment: qHTS for induction of synthetic lethality in tumor cells producing 2HG: qHTS for the HT-1080-NT fibrosarcoma cell line; conditions: HT-1080-NT fibrosarcoma viability, CellTiter-Glo ATP luminescence, 48 h; activity, negative = less viability: at 46.1 µM (top of the series) unless noted;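 note: NT is the 2HG producing partner of a matched IDH1 knockdown line; nearly all actives have a fitted effect of over 55% in size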;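 for activity, negative = less viability: 0% = DMSO-treated cells and -100% = media-only wells without cells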
Summary of the method: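 Compounds were tested in concentration-response format on HT-1080-NT cells for 48 hours at 37 degrees C. Cell viability came from CellTiter-Glo luminescence; curves were classified by r2, response magnitude and activity.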
Potency is the fitted concentration of half-maximal effect; tags give direction and shape of the fitted curve.

Structure (SMILES) | Potency | activity, negative = less viability
Cc1ccc(NC(=O)CCNS(=O)(=O)c2cccc3nsnc23)cc1F | inactive | 
CCOC(=O)C1(C)CCN1C(=O)c1ccc(F)c(Cl)c1 (stereo unspecified) | inactive | 
Cc1ccc(NC(=O)c2ccc([N+](=O)[O-])o2)cc1S(=O)(=O)N1CCOCC1 | inconclusive [cytotoxic, single point] | 
O=C1CSC(=S)N1Cc1cccnc1 | inconclusive [cytotoxic, full curve] | 
CCCCn1c(SCC(=O)N2CCN(c3ccccc3)CC2)nc2ccsc2c1=O |  | inconclusive: -32.7% [cytotoxic]
COc1ccc(S(=O)(=O)c2cnc3ccccc3n2)cc1 | inconclusive [cytotoxic, single point] | 
Cc1ccc(-n2nc3c(N4CCC(C(=O)NCc5cccc(F)c5)CC4)nnc(C)c3c2C)cc1 | inconclusive [cytotoxic, partial curve, poor fit] | 
NC(=O)NCc1cccc(Cl)c1 | inconclusive [cytotoxic, single point] | 
O=c1cc(-c2ccccc2[N+](=O)[O-])oc2ccccc12 | inconclusive [cytotoxic, single point] | 
OC1(c2ccc(Cl)c(Cl)c2)C[n+]2ccccc2N1Cc1ccccc1 (stereo unspecified) | active: 18.4 µM | 
O=C(NCc1ccco1)C(=O)NCC1OCCN1S(=O)(=O)c1cc(F)ccc1F (stereo unspecified) | inconclusive [rising, single point] | 
COc1ccc(CCNC(=O)c2coc(=O)c(Br)c2)cc1 | inconclusive [cytotoxic, single point] | 
Cc1ccc(OS(=O)(=O)c2cn(C)c(=O)n(C)c2=O)cc1C | inconclusive [rising, partial curve] | 
O=c1[nH]c(-c2ccccc2O)nc2c1CCCC2 | inconclusive [rising, full curve, poor fit] | 
CN(C)c1ccc(-c2nn3c(-c4ccccc4Cl)nnc3s2)cc1 | inconclusive [cytotoxic, full curve] | 
CCOc1ccc(-c2cn(-c3ccccc3OC)c(=S)[nH]2)cc1 | inconclusive [cytotoxic, single point] | 
COc1cc(-c2ccc3c(=O)c4ccccc4n(C)c3c2)cc(OC)c1OC | inconclusive [cytotoxic, single point] | 
O=C(COC(=O)c1ccccc1C(=O)c1ccccc1)NCCc1ccc(Cl)cc1Cl | inconclusive [cytotoxic, single point] | 
CC(C)Oc1ccc(F)cc1-c1cc(C(=O)NCc2cc(C(F)(F)F)cc(C(F)(F)F)c2)[nH]n1 |  | inconclusive: -44%
CCOC(=O)COc1cccc(C2NC(=O)c3ccccc3O2)c1 (stereo unspecified) | inactive | 
CN(CC(=O)Nc1cccc(F)c1)C(=O)c1ccc(COc2ccccc2)cc1 | active: 25.9 µM | 
CC(C)C[C@H]1CNC(=O)C(=O)N1C[C@@H]1CCCN1C[C@H](Cc1ccc(O)cc1)N1C[C@H](Cc2ccccc2)N(CC2CCCCCC2)C(=O)C1=O | inconclusive [cytotoxic, single point] | 
O=C(/C=C/c1cccs1)c1cc(Br)ccc1OC(=O)N1CCOCC1 | active: 20.6 µM | 
O=S(=O)(c1ccc2c(Cl)cccc2c1)N1CCN(c2nc(-c3cccs3)nc3ccccc23)CC1 | inactive | 

Structure (SMILES) | Potency | activity, negative = less viability
OC(COc1cccc2ccccc12)CN1CCN(c2ccccc2Cl)CC1 (stereo unspecified) | inconclusive [cytotoxic, single point] | 
CC(C)c1ccc(NC(=O)Cc2cn(C)c3ccccc23)cc1 | inactive | 
CCSc1ccc2c(c1)N(CCCN1CCN(C)CC1)c1ccccc1S2 | active: 18.4 µM | 
CCc1cc(OCCCCNCc2ccccc2)ccc1Cl | active: 23.1 µM | 
CCC(=O)Nc1ccc(-c2ccc(NC(=O)CC)c(OC)c2)cc1OC | inconclusive [cytotoxic, single point] | 
COc1ccc(Nc2ncc(C#N)c(N)n2)c(OC)c1 | inconclusive [rising, single point] | 
CCOc1ccc(S(=O)(=O)N(C)c2ccc(OCC(=O)Nc3nc(-c4cc(OC)ccc4OC)cs3)cc2)cc1 | inactive | 
O=C(CSc1nnc(-c2cccnc2)n1Cc1ccco1)N1c2ccccc2Sc2ccccc21 | inactive | 
CCOCCCNC(=O)c1cn(CC)c2ccc(S(=O)(=O)N3CCCC3)cc2c1=O | inactive | 
Cc1cccc(Oc2sc(C(=O)c3ccccc3)c(N)c2C#N)c1C | inactive | 
O=C(N/N=C/c1ccsc1)c1cc(-c2cccs2)nc2ccccc12 | inconclusive [cytotoxic, single point] | 
CCCCNC(=O)c1nc(C2CCN(S(=O)(=O)c3ccccc3C(F)(F)F)CC2)oc1-c1cccc(C(F)(F)F)c1 |  | inconclusive: 30.4%
C=CCC1(CC=C)CCCN1C(=O)C1CCC(=O)N(CCc2ccccc2)C1 (stereo unspecified) | inactive | 
O=C(O)c1ccc(-n2ncc(Cl)c(Cl)c2=O)cc1 | active: 5.8 µM | 
COc1cccc(/C=C(/C(=O)OCC(N)=O)c2ccccc2)c1 | inactive | 
Cc1c(O)cccc1C(=O)N[C@@H](CSc1ccccc1)[C@H](O)CN1C[C@H]2CCCC[C@H]2C[C@H]1C(=O)NC(C)(C)C | active: 13 µM | 
O=C(Cc1ccc(Cl)cc1)Nc1ccc(CN2CCCCC2)cc1 | inconclusive [cytotoxic, single point] | 
CCOC(=O)Nc1sc2c(c1C#N)CCCC2 | inactive | 
Clc1ccc(CN2CCc3c([nH]c4ccccc34)C2)cc1Cl | inconclusive [cytotoxic, single point] | 
Cc1cccc(-c2nc(CN3CCCC(C(=O)NC4CCCCC4)C3)c(C)o2)c1 (stereo unspecified) | inconclusive [cytotoxic, single point] | 
Cc1ccc(-c2nc3ccccc3c(=O)n2NC(=O)COc2ccccc2)cc1 |  | inconclusive: 12.1%
COc1cccc(-c2nn(-c3ccc(C)cc3)cc2C(=O)N2CCc3cc(OC)c(OC)cc3C2)c1 | inconclusive [cytotoxic, single point] | 
O=C(N/N=C/c1ccc([N+](=O)[O-])o1)C(O)c1ccccc1 (stereo unspecified) | inconclusive [cytotoxic, partial curve] | 
CN(c1cccc(NC(=O)Nc2ccc(Cl)cc2)c1)S(C)(=O)=O | inconclusive [cytotoxic, single point] | 

Structure (SMILES) | Potency | activity, negative = less viability
CC1=CC(=O)C=CC1=Nc1ccc(N(C)C)cc1 | inconclusive [cytotoxic, single point] | 
CCN(Cc1ccc(OC)c(COC)c1)CC1CCCN(CCc2cccc(F)c2)C1 (stereo unspecified) | inconclusive [cytotoxic, partial curve, poor fit] | 
Cc1ccc2cc(C(c3nnnn3Cc3ccccc3)N3CCc4ccccc43)c(=O)[nH]c2c1 (stereo unspecified) | inconclusive [cytotoxic, single point] | 
COc1ccc(C(=O)Cn2c(C(=O)/C=C/c3ccccc3)nc3ccccc32)cc1 | inconclusive [cytotoxic, single point] | 
O=C(CN1CCN(CC(=O)c2ccc(F)cc2)CC1)Nc1ccccc1Cl | inactive | 
COC(=O)c1ccccc1NC(=O)c1cc[n+]([O-])cc1 | inactive | 
C=CCN1C(=O)C(CC(=O)Nc2ccc(OCCC)cc2)N(CCCN2CCN(Cc3ccccc3)CC2)C1=S (stereo unspecified) | active: 16.4 µM | 
O=C(Nc1ccc2c(c1)nc1n2CCN(Cc2ccccc2)C1)NC1CCCCC1 | inconclusive [cytotoxic, partial curve] | 
Cc1ccc(S(=O)(=O)N2CCCCC2)cc1NC(=O)CSc1nnnn1C | inactive | 
CC(C)Oc1cc(NC(=O)CS(=O)CC(=O)Nc2cccc(C(F)(F)F)c2)c(Cl)cc1Cl (stereo unspecified) | inconclusive [cytotoxic, single point] | 
O=S(=O)(c1ccc2c(c1)nc(COc1ccc(Cl)cc1)n2CC1CCCO1)N1CCOCC1 (stereo unspecified) | inactive | 
Cc1ccc(S(=O)(=O)N2CCCC(C(=O)NCCC3=CCCCC3)C2)cc1 (stereo unspecified) | inactive | 
COc1cc(C2c3[nH]c4ccccc4c3C[C@H]3C(=O)N(CCO)CC(=O)N23)cc(OC)c1OC (stereo partly specified) | inactive | 
Cc1ccc(-c2nc(N/N=C/c3cccnc3)c3ccccc3n2)cc1 | active: 11.2 µM | 
CSc1ccc(/C=N/NC(=O)c2cccc(O)c2)cc1 | inconclusive [cytotoxic, single point] | 
CCOC(=O)C1=C(C)NC(C)=C(C(=O)OCC)C1c1ccc([N+](=O)[O-])s1 | inconclusive [cytotoxic, single point] | 
O=C(CSc1nnc(-c2ccccc2O)o1)Oc1ccc(OCc2ccccc2)cc1 |  | inconclusive: -31.1% [cytotoxic]
CN(C)S(=O)(=O)c1cccc(NC(=O)c2cc([N+](=O)[O-])ccc2N2CCCCC2)c1 | inconclusive [cytotoxic, single point] | 
c1ccc2c(c1)C(=NC1CCCCC1)NC2=NC1CCCCC1 | inconclusive [cytotoxic, single point] | 
CC(=O)N1c2ccc(S(=O)(=O)NCCC(=O)N(C)Cc3ccccc3)cc2CC1C (stereo unspecified) | inactive | 
CSc1ccccc1NC(=O)C(=O)c1c[nH]c2ccccc12 | inconclusive [cytotoxic, single point] | 
CCOC(=O)C1=CC[C@@H](c2cc3ccc(OC)cc3n2C)N(S(=O)(=O)c2ccc(C)cc2)[C@H]1C(=O)OCC | inconclusive [rising, single point] | 
Cc1cccnc1C(NC(=O)C1CCN(Cc2ccc(Oc3ccccc3)cc2)CC1)c1ccc(F)cc1 (stereo unspecified) | active: 20.6 µM | 
